The results in this text go back to PubChem BioAssay AID1159614 (National Center for Advancing Translational Sciences (NCATS), 2016).

Hit rate of the full screen: of about 45,000 compounds, about 65 (0.1%) were called active. Calls follow the shape of the dose curve; as a rule, active = well fitted activation curve with a large enough effect; inconclusive = small, poorly fitted or top-dose-only effect; inactive = no such curve, though single readings can be large or run the other way. The list shows a part of the results.

Sequence of UniProt P54803 (P54803 whole entry, looked up): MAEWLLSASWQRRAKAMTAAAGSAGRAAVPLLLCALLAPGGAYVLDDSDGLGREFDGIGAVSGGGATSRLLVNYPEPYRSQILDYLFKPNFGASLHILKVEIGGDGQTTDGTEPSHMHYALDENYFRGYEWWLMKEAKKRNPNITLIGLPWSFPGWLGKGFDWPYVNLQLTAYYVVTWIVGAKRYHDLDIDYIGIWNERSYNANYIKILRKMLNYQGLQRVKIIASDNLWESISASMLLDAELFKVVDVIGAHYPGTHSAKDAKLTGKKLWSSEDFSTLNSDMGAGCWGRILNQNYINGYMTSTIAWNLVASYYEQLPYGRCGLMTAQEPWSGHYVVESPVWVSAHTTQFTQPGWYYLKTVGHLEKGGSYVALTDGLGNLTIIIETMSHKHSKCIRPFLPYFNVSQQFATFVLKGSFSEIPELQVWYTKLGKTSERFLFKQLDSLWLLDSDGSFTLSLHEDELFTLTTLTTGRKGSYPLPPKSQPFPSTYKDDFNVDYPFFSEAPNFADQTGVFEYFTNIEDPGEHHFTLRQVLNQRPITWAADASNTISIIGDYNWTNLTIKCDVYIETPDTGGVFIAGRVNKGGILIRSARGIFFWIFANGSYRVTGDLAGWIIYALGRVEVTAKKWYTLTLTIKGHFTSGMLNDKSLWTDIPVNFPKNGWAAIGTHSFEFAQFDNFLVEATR

The target in the test is Galactocerebrosidase (Homo sapiens) (UniProt P54803). Briefly: A Novel Cell-Based Assay to Identify Small Molecules for B -Galactocerebrosidase. Also: 0% is about no effect; nearly all actives have a fitted effect of over 65% in size. Particulars: 145M-Twi-hGALC-G270D cells (Twitcher mouse brain line with human GALC G270D), HMU-beta-Gal fluorescence, 48 h; series mostly up to 57.5 µM; activation: at the top concentration. Put shortly:
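Brain-derived Twitcher mouse 145M-Twi cells stably expressing human GALC-G270D or wild-type GALC, treated live, then residual GALC activity read by fluorescence of HMU-b-Gal substrate (0.1 mM final) in citrate-phosphate buffer pH 5.2 with sodium taurocholate. Signal increase indicates enhancement.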
As to `CCc1ccc(S(=O)(=O)n2ccnc2)cc1`, the “activation” value was inactive: 5.75%. With `Cc1cc(C)c(NC(=O)CN(C)S(=O)(=O)c2ccc3c(c2)c(=O)n(C)c(=O)n3C)c(C)c1`, the “activation” value is inactive: 18.4%. Under `Cc1ccc(C(=O)/C=C/c2cn(CC(O)CN3CCCCCC3)c3ccccc23)cc1` (stereo not given) stands inactive: -8.51%; under `c1cnc(N2CCN(Cc3ccc4c(c3)OCO4)CC2)nc1`, inactive: -13.8%. Consider `Cc1ccc(NC(=O)CSc2nccn2Cc2ccc3c(c2)OCO3)c(C)c1`, for which the “activation” value was inactive: -9.35%. Take `CCC1=C(c2ccc(C)cc2)S(=O)(=O)N=C1N1CCC(C(=O)NCc2ccc(C)cc2)CC1`: the “activation” value was inactive: -46.8%.

As to `CCC(C)NC(=O)CCC(=O)NNc1nc2ccccc2c2nc(C)nn12` (stereo not given), the “activation” value is inactive: -8.26%.

Consider `CCCSCCCNC(=O)CN1C(=O)CCn2nc(-c3cn(C)c4ccccc34)cc21`, for which the “activation” value was inactive: -16.2%.

In the case of `COc1ccc(-c2nc3sc(CCNS(=O)(=O)c4c(C)cc(C)cc4C)c(C)n3n2)cc1`, the “activation” value was inactive: -6.76%. In the case of `COc1cc(Cl)c(C)cc1Nc1nnc(-n2nc(C)cc2C)c2ccccc12`, the “activation” value was inactive: -10.6%. For `CCc1cccc(NC(=O)C(Cc2ccccc2)NS(=O)(=O)c2ccc3c(c2)c(=O)n(C)c(=O)n3C)c1` (stereo not given), the “activation” value is inactive: -18.7%. Under `COc1cccc(NC(=O)C2CCCN2S(=O)(=O)c2ccc3nc(-c4ccccc4)[nH]c3c2)c1` (stereo not given) stands inactive: -2.01%; under `COc1ccc(OCc2nc(C#N)c(NCc3ccccc3Cl)o2)cc1`, inactive: 2.56%; under `Cc1cc(SCC(=O)Nc2nsc(-c3ccc(C(C)(C)C)cc3)n2)nc2ccccc12`, inactive: -16.6%.

For the compound `COc1cccc(N2CCN(C(=O)c3c4c(nc5ccccc35)C(=O)N(C3CCCCC3)C4)CC2)c1`, the “activation” value is inactive: -19.9%. For `CCOc1ccc(C(=O)Nc2ccc3c(c2)N(C(C)=O)CCC3)cc1OCC`, the “activation” value was inactive: -11.6%. In the case of `CCc1ccc(S(=O)(=O)N(C(C)=O)c2ccc3oc4c(c3c2)CCCC4)cc1`, the “activation” value was inactive: -26.7%. With `CCOc1ccc(C2c3c(oc4cc(C)c(C)cc4c3=O)C(=O)N2c2ccccn2)cc1` (stereo not given), the “activation” value was inactive: -9.29%.

`CCC(C(=O)Nc1cc(C)ccc1OC)n1nnc(C(=O)OC)c1C(=O)OC` (stereo not given): the “activation” value is inactive: -16.6%. As for `COc1ccc(NS(=O)(=O)c2ccc3c(c2)NC(=O)CCS3)c(OC)c1`, the “activation” value was inactive: -7.59%. Consider `CC(=O)Nc1cccc(NC(=O)Cc2csc(COc3cccc(C)c3)n2)c1`, for which the “activation” value is inactive: -9.19%. In the case of `CCOC(=O)N1CCc2c(sc3c2c(=O)n(-c2ccc(CC)cc2)c(=O)n3Cc2cccc(OC)c2)C1`, the “activation” value was inactive: -3.43%. As for `COc1ccccc1N1CCN(S(=O)(=O)c2ccc(-n3cnnn3)cc2)CC1`, the “activation” value was inactive: 5.75%. Turning to `O=C(NCCN1CCCCC1)c1ccc(Cn2c(SCc3ccc(F)cc3)nc3cccnc32)cc1`, the “activation” value was inactive: -10.7%. For `CN(C)c1ccc(CN(Cc2ccco2)C(=O)c2ccc(F)cc2)cc1`, the “activation” value is inactive: -7.33%. With `COc1ccccc1CNC(=O)CCC(=O)N1Cc2ccccc2Oc2ncccc21`, the “activation” value is inactive: -20.3%. On to `CC(=O)N1c2ccc(S(=O)(=O)NCC3CCC(C(=O)Nc4cc(C)cc(C)c4)CC3)cc2CC1C` (stereo not given), for which the “activation” value was inactive: 2.51%.

Regarding `Cc1ccc(-n2nc3c(N4CCC(C(=O)N(C)Cc5ccccc5)CC4)nnc(C)c3c2C)cc1`, the “activation” value is inactive: -8.8%. Consider `Cc1ccc(C)c(S(=O)(=O)n2nc(C)c(S(=O)(=O)N3CCC(C)CC3)c2C)c1`, for which the “activation” value was inactive: -6.05%. Turning to `CC(=O)Nc1ccc(S(=O)(=O)Nc2nc3n(n2)C(c2ccccc2)C=C(c2ccc(Cl)cc2)N3)cc1` (stereo not given), the “activation” value is inactive: -12.7%. `O=C(CSc1ncc(-c2ccccc2)[nH]1)Nc1ccc(F)cc1F`: the “activation” value is inactive: -12.6%. The value for `O=C(CCCCn1c(=O)c2ccccc2n(CC(=O)Nc2ccc(F)cc2F)c1=O)NCc1ccccc1Cl` was inactive: -0.649%; that for `CN1CCN(C(=O)C(=O)Nc2c3c(nn2-c2cccc(Cl)c2)CSC3)CC1` was inactive: -10.6%; that for `COc1ccc(CCNC(=O)CSc2cn(CCNC(=O)c3ccccc3F)c3ccccc23)cc1OC` was inactive: -2.32%.

For `CCCCOC(=O)Cn1nnc2sc(-c3ccccc3)cc2c1=O`, the “activation” value is inactive: -13.5%. For the compound `COc1ccc(Nc2cc(C(=O)NCc3cccs3)c3ccccc3n2)cc1`, the “activation” value is inactive: -12.7%.

Consider `Clc1ccc(C(Cn2ccnc2)OCc2ccsc2Cl)c(Cl)c1` (stereo not given), for which the “activation” value was inactive: -9.46%. The value for `COC(=O)c1c(SC)nc2ccccc2c1OCc1ccc(C)cc1` was inactive: -0.53%; that for `CCOC(=O)c1c(C)[nH]c(C)c1S(=O)(=O)N1CCCC(C(=O)NCc2ccc(C)cc2)C1` (stereo not given) was inactive: -23.2%; that for `CCc1ccccc1N1C(=O)N(CC(=O)c2ccc(Cl)cc2)c2ccccc2S1(=O)=O` was inactive: -17.5%. The value for `Cc1ccc(Cn2c(=O)n(CCc3ccccc3)c(=O)c3c(C)c(C)sc32)cc1` was inactive: -0.661%; that for `CCOc1ccc(C2=C(C(=O)CC)Sc3nncn3N2C(=O)CC)cc1` was inactive: -3.7%; that for `CCOC(=O)Cn1c(=O)oc2cc(S(=O)(=O)N3CCCC(C)C3)ccc21` (stereo not given) was inactive: -14.5%. Take `O=C(NCc1ccc(Cl)cc1)c1ccc2oc(=O)n(Cc3ccccc3)c2c1`: the “activation” value was inactive: 8.74%.

`CCOC(=O)c1cc(S(=O)(=O)N2CCN(c3cccc(OC)c3)CC2)[nH]n1`: the “activation” value was inactive: -10%. `CCCCn1cc(S(=O)(=O)c2ccc(Cl)cc2)c(=O)c2cc(F)c(N3CCCC(C)C3)cc21` (stereo not given): the “activation” value is inactive: -18.8%. Under `CCc1cnc2c(c1SCC(=O)Nc1ccc(OC)c(OC)c1)c(=O)n(C)c(=O)n2C` stands inactive: -6.99%. Take `COC(=O)c1c(-c2ccc(Cl)cc2)noc1N1CCN(c2cccc(C)c2C)CC1`: the “activation” value was inactive: -12.6%. Turning to `CC1CCCN(C(=O)CCS(=O)(=O)c2cc3c(cc2Cl)NC(=O)CO3)C1` (stereo not given), the “activation” value was inactive: -11%. `Cc1ccc(C2c3c(-c4ccccc4O)n[nH]c3C(=O)N2CCc2ccccc2)cc1` (stereo not given): the “activation” value is inactive: -20.1%.

Turning to `COc1cccc(CNC(=O)Cn2nc3c(cc2=O)CCCC3)c1OC`, the “activation” value was inactive: -6.16%. With `CCOc1ccc(CNC(=O)Cn2cc3c(n2)-c2c(oc(C(=O)N4CCCC4)c2C)CC3)cc1`, the “activation” value is inactive: -2.38%. As to `CCCC1=Nc2cc(C(=O)NCC(C)c3ccccc3)ccc2Sc2ccccc21` (stereo not given), the “activation” value was inactive: -11.2%. The value for `CC(=O)N1c2c(cc(Br)cc2S(=O)(=O)Nc2ccc(OC(F)(F)F)cc2)CC1C` (stereo not given) was inactive: -20.3%; that for `Cc1c(C(=O)OC2CCC(C)CC2)[nH]c2c1C(=O)CC(c1ccccc1Cl)C2` (stereo not given) was inactive: -23.3%. For `CCOc1ccc(CCNC(=O)CCCc2nnc3n(C)c(=O)c4sccc4n23)cc1OCC`, the “activation” value was inactive: -6.45%. Take `COc1ccccc1CN(Cc1ccco1)c1cnc(S(C)(=O)=O)nc1C(=O)Nc1ccccc1Cl`: the “activation” value is inactive: 2.33%.

In the case of `CCc1cccc(C)c1NC(=O)NC1COc2ccccc2C1` (stereo not given), the “activation” value is inactive: 13%. As to `CCNc1nc(NC(C)CC)nc(Oc2ccc(OCC)nn2)n1` (stereo not given), the “activation” value was inactive: -30%. With `COc1ccc(NC(=O)NCc2c(-n3cccc3)sc3c2CCCC3)c(OC)c1`, the “activation” value was inactive: -16%.

As for `COc1ccc(OCC(=O)Nc2nc(-c3ccc(Br)cc3)ns2)cc1`, the “activation” value was inactive: -11.9%.

As for `O=C(Nc1ccc(Cl)cc1)c1cc(S(=O)(=O)N2CCCc3ccccc32)ccc1F`, the “activation” value was inactive: -23.5%. Consider `Cc1cc(Cl)ccc1NC(=O)CN1C(=O)COc2ccc(S(=O)(=O)N3CCC(C)CC3)cc21`, for which the “activation” value is inactive: -8.8%.

As to `O=C(CCCn1c(=O)[nH]c2ccsc2c1=O)N1CCN(c2cccc(C(F)(F)F)c2)CC1`, the “activation” value was inactive: -8.87%. Regarding `CCOC(=O)c1noc2ncn(Cc3cccc(C#N)c3)c(=O)c12`, the “activation” value was inactive: -24.2%. Regarding `CCOC(=O)Cc1ccc(NC(=O)N(C(C)C)C2CCN(C(C)=O)CC2)cc1`, the “activation” value was inactive: -9.13%. `COc1ccc(NCc2cc3cc4c(cc3n(CC(=O)Nc3ccccc3)c2=O)OCO4)cc1`: the “activation” value is inactive: -27.9%. On to `COc1ccc(NC(=O)CSc2nc(-c3ccc(OC)c(OC)c3)[nH]c2-c2ccc(C)cc2)cc1`, for which the “activation” value is inactive: -14%. With `Cc1cc(=O)[nH]c2nnc(SCc3c(F)cccc3Cl)n12`, the “activation” value was inactive: -17%. `Cc1nc2sccn2c(=O)c1S(=O)(=O)Nc1ccc(N2CCOCC2)cc1`: the “activation” value was inactive: -7.02%. For `Cc1c(Cl)cccc1NC(=O)CNS(=O)(=O)c1cccs1`, the “activation” value was inactive: -21.4%. The value for `Cc1ccc(C2CCN(C(=O)Nc3ccc(Cl)cc3)C2)cc1` (stereo not given) was inactive: -0.335%. `CSc1cccc(NC(=O)C2CCN(S(=O)(=O)c3ccc4c(c3)CCCN4C(=O)C3CCC3)CC2)c1`: the “activation” value was inactive: -16%.

Regarding `COc1ccc(N(CC(C)C)S(=O)(=O)c2nnc(NC(=O)c3cccs3)s2)cc1`, the “activation” value is inactive: -12.8%. As to `CCCCCCCCCCCCCCC[C@H](O)[C@@H](N)CO`, the “activation” value was inactive: 2.6%. In the case of `CCOc1ccc2c(c1)sc1nc(=O)n(-c3ccc(Cl)c(Cl)c3)c(=O)n12`, the “activation” value is inactive: -3.34%. In the case of `CCOC(=O)CCn1cnc2onc(-c3cc(OC)ccc3Cl)c2c1=O`, the “activation” value was inactive: -18.6%.

Turning to `Cc1ccc(OCc2nc(-c3ccc(C(=O)N4CCN(c5cccc(C(F)(F)F)c5)CC4)cc3)oc2C)cc1`, the “activation” value is inactive: -9.22%.

With `Cc1ccc(C(=O)N2CCc3cc(CNC(=O)c4ccc(Br)cc4)ccc32)cc1`, the “activation” value is inactive: -19.7%. Under `Cc1ccc(C(=O)Nc2ccccc2)cc1S(=O)(=O)Nc1ccc(Br)cc1` stands inactive: -7.99%; under `Cc1cccc(NC(=O)c2ccc3c(O)c(S(=O)(=O)c4ccccc4)c(=O)[nH]c3c2)c1C`, inactive: -23.6%. For `Cc1ccccc1-c1nc(CS(=O)(=O)CC(=O)NCCc2ccccc2)c(C)o1`, the “activation” value is inactive: 5.97%. On to `COc1ccc(Cl)cc1NC(=O)CSc1nc2ccccc2c2nc(-c3ccccc3)nn12`, for which the “activation” value was inactive: -10.5%. The value for `O=C(Nc1ccc2nc(SCC(=O)N3CCc4ccccc43)sc2c1)c1cccc(F)c1` was inactive: 2.26%; that for `COc1ccc(S(=O)(=O)N2CCN(Cc3ccc4c(c3)OCO4)CC2)cc1C` was inactive: -28.9%. As for `Cc1cccc(C)c1NC(=O)C(=O)NCC(c1ccc2c(c1)OCO2)N1CCOCC1` (stereo not given), the “activation” value is inactive: -8.99%. Regarding `CCOC(=O)c1cnc2c(Cl)cc(Cl)cc2c1Nc1cc(C(=O)O)ccc1C`, the “activation” value is inactive: -25.5%. On to `COCCNC(=O)CCn1c(=O)c2cc(OC)c(OC)cc2n(CC(=O)Nc2ccccc2C)c1=O`, for which the “activation” value is inactive: 5.85%.

Regarding `CS(=O)(=O)NCC(c1ccco1)N1CCN(c2ccc(F)cc2)CC1` (stereo not given), the “activation” value was inactive: -14.5%. Take `O=S(=O)(c1ccc(-c2cc(C(F)(F)F)on2)s1)N1CCN(c2ccccc2)CC1`: the “activation” value was inactive: -11.5%. As for `O=C(Cn1ncn2nc(-c3cccs3)cc2c1=O)NCc1ccc(Cl)cc1`, the “activation” value was inactive: -24.5%. Turning to `CCc1ccc(S(=O)(=O)c2nnn3c2nc(Nc2ccc(C)c(Cl)c2)c2sccc23)cc1`, the “activation” value was inactive: -15.4%.

As for `Cc1oc(-c2cccc(Cl)c2)nc1CN1CCCC(C(=O)NCCc2ccc(Cl)cc2)C1` (stereo not given), the “activation” value was inactive: -38.4%. Turning to `COCCCn1c(=N)c(C(=O)NCc2ccco2)cc2c(=O)n3cccc(C)c3nc21`, the “activation” value was inactive: -2.72%. The value for `CCOC(=O)c1c(NC(=O)COc2ccc(Br)cc2)sc2c1CCCC2` was inactive: -16.4%.
